Variants at the background level are over-represented here.
B1: TPR 5TU (parent)
chain: GGAUCUUCUCGAUCUAACAAAAAAGACAAAUCUGCCACAAAGCUUGAGAGCAUCUUCGGAUGCAGAGGCGGCAGCCUUCGGUGGCGCGAUAGCGCCAACGUUCUCAACUAUGACACGCAAAACGCGUGCUCCGUUGAAUGGAGUUUAUCAUG

Variants of: B1
Test: polymerase ribozyme fitness, log enrichment relative to wild type (log ratio); higher = more active; in vitro selection for triplet polymerase activity
Method in brief: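 Fitness measures genotype enrichment against wild-type enrichment on a logarithmic scale, with inverse-variance-weighted averaging of replicates. The logarithm is base 2, and genotypes were kept only with ≥10 input reads and ≥1 read per output in Illumina sequencing. The sequenced libraries came from one triplicate in vitro selection round, including frozen incubation at −7 °C, of PCR-built, transcribed mutant libraries of each subunit of a heterodimeric triplet polymerase ribozyme.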

Variant | polymerase ribozyme fitness (log ratio)
U7G U55A G94U A142C | ≤ -4.2
U7G U56A G83A C87A A115G U139A | ≤ -4.2
C8A A12C C32U C76U C85G C99G G117U | ≤ -4.2
C8A A12G C85U C103G G124U C129A | ≤ -4.2
C8A A12U U61A C79U G84U C85G C118U A119G C129A G143C U148G | ≤ -4.2
C8A A16C A60G A91U C96A C114G | ≤ -4.2
C8A A16G A30G A47G G58A U78C G136U | ≤ -4.2
C8A A16G C96A | ≤ -4.2
C8A A17C A26C A40C C87U U144G | ≤ -4.2
C8A A17C C87A A98C A107U U109C A150G | ≤ -4.2
C8A A17C G50C G62A C85G | ≤ -4.2
C8A A17G A60U U82G G83A C149A | ≤ -4.2
C8A A17G G84U G88A U109G U135G | ≤ -4.2
C8A A17G U44A A66U U77A A107C U139G | ≤ -4.2
C8A A17U A23U A26G C27G U90G G92A A115C | ≤ -4.2
C8A A17U A26U G48U G68U C93G C132G G141C U148G | ≤ -4.2
C8A A19U A28C A52G A64U G84A C87U C95G G136C | ≤ -4.2
C8A A19U A28U C51A C54A C87A | ≤ -4.2
C8A A19U G136U U151G | ≤ -4.2
C8A A21G A30C G92A G117A | ≤ -4.2
C8A A21G A91C C118A C125U | ≤ -4.2
C8A A22U U44A C85G | ≤ -4.2
C8A A23G G48U A73G C93U U127A | ≤ -4.2
C8A A23U C57A C76G C95U C96A G128A | ≤ -4.2

Variant | polymerase ribozyme fitness (log ratio)
C8A A24U C35U U45A A98G C99G | ≤ -4.2
C8A A26G A37C G62A A120G G140C G152A | -4.13
C8A A28G A40U G94A C131U | ≤ -4.2
C8A A28G C93U C123A | ≤ -4.2
C8A A29C A47C C54G A120U | ≤ -4.2
C8A A29C C32U A52G U55A G86A A91U A110G C114A C123U | ≤ -4.2
C8A A29G C32U C35A A89C A150U | ≤ -4.2
C8A A29U G65A C87A C125U U139A | ≤ -4.2
C8A A30C G46A C54G G92U C95G | ≤ -4.2
C8A A30C G67C G68A G88A C93A U135C G141C | ≤ -4.2
C8A A30G A40U C79A U82C | ≤ -4.2
C8A A37U G59U C87G G136U G141A | ≤ -4.2
C8A A39U A47C C87A | ≤ -4.2
C8A A41C C76U G84C A119C | ≤ -4.2
C8A A41G G68A C75A A91G C96U U102G G141A | ≤ -4.2
C8A A41G U53A C72A C93G U102G U109G | ≤ -4.2
C8A A47G A49C G59C A60U G84A C125G | ≤ -4.2
C8A A49G G74A G86U G141U U148G | ≤ -4.2
C8A A73G C93A U146C | -4.17
C8A A73U C75A | ≤ -4.2
C8A A142C | -4.11
C8A C10U U33A G81U C87A C103G A147C | ≤ -4.2
C8A C14A A21C A29G A47C A97G A106C U127G A137C | ≤ -4.2
C8A C14A A28U C51U C76G U139A G141U | ≤ -4.2

Variant | polymerase ribozyme fitness (log ratio)
C8A C14G A40U G84C U101C U139G | ≤ -4.2
C8A C14G C27A C57U A91G G94U U134A G143A | ≤ -4.2
C8A C14U A21C U53A G83A A150C | ≤ -4.2
C8A C27A C57G G92A | ≤ -4.2
C8A C27U A49C U77G G94A C125A | ≤ -4.2
C8A C32G A40U A52U A73U A91U | ≤ -4.2
C8A C35U C43A G83C G141U | ≤ -4.2
C8A C54G | ≤ -4.2
C8A C72U | ≤ -4.2
C8A C75A G88U A150G | ≤ -4.2
C8A C87G G88A G143C U145C | ≤ -4.2
C8A C93A | ≤ -4.2
C8A C96G U104G A110U U127A | ≤ -4.2
C8A G25A U31A C51A A52C G59U A60C G92C | ≤ -4.2
C8A G46A G50C | ≤ -4.2
C8A G50U | -3.79
C8A G58A A60C C63U C85G | ≤ -4.2
C8A G58C | -4.1
C8A G58C U82A A98G G136U | ≤ -4.2
C8A G59C G94C A113G | ≤ -4.2
C8A G70C U134G | ≤ -4.2
C8A G88U C99A | ≤ -4.2
C8A G88U G92U C95U A106C U127G | ≤ -4.2
C8A G128A | ≤ -4.2

Variant | polymerase ribozyme fitness (log ratio)
C8A U31G G62A C114A G124U U139G | ≤ -4.2
C8A U53A G81C C85G C108U A138G A147G A150U G152U | -3.5
C8A U55A G84U C85A | ≤ -4.2
C8G A12C A23G A52U C57U C93A C95G A110U | ≤ -4.2
C8G A16G A17U A20C A37C G59C U82G C87G A107G A110C U139G | ≤ -4.2
C8G A17C C18G A41C A52U G83A G140U | ≤ -4.2
C8G A17G G25A C54G G71C C87U U90A C96U C132U | ≤ -4.2
C8G A19U C72U C87G G100A C108A C125G A150C | ≤ -4.2
C8G A19U U56A G58A G68A U139C | ≤ -4.2
C8G A20C G42U G46U U61A G68A A138U | ≤ -4.2
C8G A20G A21C C32U C132U | ≤ -4.2
C8G A20U A47C A73G C87A C108G C116U G141A | ≤ -4.2
C8G A20U C54U G59A C87A A89C A91C | ≤ -4.2
C8G A22C A24U C69U A73U C93U | ≤ -4.2
C8G A23U A47G G86A C103G A115G C149U | ≤ -4.2
C8G A23U C27G A40G A49C C87U U104G U134G G140A | ≤ -4.2
C8G A24C G25C A30U U45A C79G G83U G126U U139G | ≤ -4.2
C8G A26C | ≤ -4.2
C8G A26U C36U U61G C99U C149G | ≤ -4.2
C8G A28C C72A U82A C87G G112U G133A A142C U148C A150C | ≤ -4.2
C8G A28U C93U | ≤ -4.2
C8G A29C U55G A60G C85G A89G G140C | ≤ -4.2
C8G A30G C38U C85U G143C | ≤ -4.2
C8G A37G G71U U82C G83A U148C | ≤ -4.2

Variant | polymerase ribozyme fitness (log ratio)
C8G A39G G74A C123U | ≤ -4.2
C8G A49C A52C G68U G80C C87A A113U U134A | ≤ -4.2
C8G A64G | ≤ -4.2
C8G A66U C72G C85G A115C | ≤ -4.2
C8G C10A A30C U56A C57G C87U U102G G143C | ≤ -4.2
C8G C10G U56G G58A C63G U101G A120U | ≤ -4.2
C8G C10U C35G C54G U56A U61A C69A G81U G83U | ≤ -4.2
C8G C10U C54G A66U C75G G88A C93U C96A A142C | ≤ -4.2
C8G C14A A28G A64C G71C G92C C105G G126C A142G | ≤ -4.2
C8G C14A A30C C69U C76G A98U U144G | ≤ -4.2
C8G C14A A39C G74U G143U | ≤ -4.2
C8G C14G C18G C96U A137U | ≤ -4.2
C8G C14U A29U G50U C54U C75G A119U | ≤ -4.2
C8G C35A C85A U90G A113C | ≤ -4.2
C8G C35U A106U A107C | ≤ -4.2
C8G C35U C85G G88U U134A | ≤ -4.2
C8G C38A U53G C54G C75A G83U C116A | ≤ -4.2
C8G C38G C69U G84U A98U G124U A137G | ≤ -4.2
C8G C38U C85G C87A U111A | ≤ -4.2
C8G C43U U78A U90C G94A C108A U134A | ≤ -4.2
C8G C54G C85U A121U C131A G136U A137G | ≤ -4.2
C8G C54U C96G C132G | ≤ -4.2
C8G C76A G92U C123A A150U | ≤ -4.2
C8G C85G G100A G143C | ≤ -4.2

Variant | polymerase ribozyme fitness (log ratio)
C8G C85U G88U U145C | ≤ -4.2
C8G C93A C108G A115C G124U | ≤ -4.2
C8G C93U | -3.64
C8G C103G | ≤ -4.2
C8G G11A A52G A89U C93G | ≤ -4.2
C8G G11U A30C C32G C54U C79G G84A G133A U146G | ≤ -4.2
C8G G11U C32G G86A A120C C125U U146G | ≤ -4.2
C8G G25U A49C A66G A89U A91G | ≤ -4.2
C8G G34A G50A U55A C76A C87A C96U C116G | ≤ -4.2
C8G G46C U77C G84A C103U A113C A137C | ≤ -4.2
C8G G59A G92A C132U G141U | ≤ -4.2
C8G G59U C87A C103G | ≤ -4.2
C8G G67U A91C A120C | ≤ -4.2
C8G G71A G74A C79U C87A C116A | ≤ -4.2
C8G G86A C103U | ≤ -4.2
C8G G88U C118G | ≤ -4.2
C8G U13G A23G G48U C57A C87A G126C | ≤ -4.2
C8G U13G C116G | -3.71
C8G U15A C35U C75G C85U A89U | ≤ -4.2
C8G U15A G84U C93G | ≤ -4.2
C8G U15C G59C C76G G84A C96A | ≤ -4.2
C8G U15G A21G G83U A91G C105U U144C U148A | ≤ -4.2
C8G U31A C57U C76U U78C C116U | ≤ -4.2
C8G U33A C54U G92A C99A | ≤ -4.2

Variant | polymerase ribozyme fitness (log ratio)
C8G U33G U53G A60U A89U A106C | ≤ -4.2
C8G U45A G58C G65A C75A G92U C132U | ≤ -4.2
C8G U56C G88C A97U C129G A147C | ≤ -4.2
C8G U61G G81A C87U G92C A121G C132A U144A G152A | ≤ -4.2
C8U A12G G25C A52G U78A C93G | ≤ -4.2
C8U A12G G80A C129G | ≤ -4.2
C8U A16G A21G A40U | -4.04
C8U A19G U55A A91G C99U | ≤ -4.2
C8U A19U C63G G65C C93G A137C A142U | ≤ -4.2
C8U A19U G25C C32G A39G A89U A97G A121C C125G | ≤ -4.2
C8U A19U G62A G86C A113C | ≤ -4.2
C8U A20U G46C G59U A60C C63U G83U C87U A97U U145A | ≤ -4.2
C8U A21C G25U A97U | ≤ -4.2
C8U A22C A26C G50C C85A C116U C118A | ≤ -4.2
C8U A22C C63U G70U U78C U82A | ≤ -4.2
C8U A22U C27U G70A C85A A89U G92U | ≤ -4.2
C8U A23C U61G G74U C96A A98C G143U | ≤ -4.2
C8U A24C C35U G58C G59C U82G C95A | ≤ -4.2
C8U A24G A41U U90G C96U | ≤ -4.2
C8U A24U A30U U90A G92C | ≤ -4.2
C8U A24U C32G G70A G83U A98C A150C | ≤ -4.2
C8U A24U C51G G84U C103G A119G C125U | ≤ -4.2
C8U A28U G62U A113C | ≤ -4.2

From the RNAGym collection of RNA variant scans (doi:10.1073/pnas.2313332121)
